Data from PubChem BioAssay (NCATS).
Inconclusive results, whose numbers are uncertain, are shown with a selection of clear calls. For some of these results: Potencies beside an inconclusive call are fits to weak or partial responses and may not hold up. The source made the active and inactive calls. Unless noted, calls follow the shape of the dose curve; as a rule, active = well fitted curve in the direction sought with a large enough effect; inconclusive = small, poorly fitted or top-dose-only effect, or another doubt; inactive = no such curve, though single readings can be large; an effect the other way counts as inactive or inconclusive.

Key:
[1] = target: 3',5'-cyclic-AMP phosphodiesterase 4B (Homo sapiens) (UniProt Q07343); test: qHTS Assay for Inhibitors of PDE-IV (AID 607; active = well fitted activation curve with a large enough effect in the main read-out, with a control signal flat, not every such curve was filed as active; inconclusive = small, poorly fitted or top-dose-only effect, or effect the other way, or a change in a side signal; also: potency is read from the fitted curve at half-maximal effect; as to activation (PDE inhibition): % of control where 0% means no effect); conditions: HEK293 ACTOne CNG channel cells, membrane potential fluorescence; activation (PDE inhibition): at 22.9 µM (top of the series)
UniProt Q07343, sequence (Q07343 whole entry, looked up): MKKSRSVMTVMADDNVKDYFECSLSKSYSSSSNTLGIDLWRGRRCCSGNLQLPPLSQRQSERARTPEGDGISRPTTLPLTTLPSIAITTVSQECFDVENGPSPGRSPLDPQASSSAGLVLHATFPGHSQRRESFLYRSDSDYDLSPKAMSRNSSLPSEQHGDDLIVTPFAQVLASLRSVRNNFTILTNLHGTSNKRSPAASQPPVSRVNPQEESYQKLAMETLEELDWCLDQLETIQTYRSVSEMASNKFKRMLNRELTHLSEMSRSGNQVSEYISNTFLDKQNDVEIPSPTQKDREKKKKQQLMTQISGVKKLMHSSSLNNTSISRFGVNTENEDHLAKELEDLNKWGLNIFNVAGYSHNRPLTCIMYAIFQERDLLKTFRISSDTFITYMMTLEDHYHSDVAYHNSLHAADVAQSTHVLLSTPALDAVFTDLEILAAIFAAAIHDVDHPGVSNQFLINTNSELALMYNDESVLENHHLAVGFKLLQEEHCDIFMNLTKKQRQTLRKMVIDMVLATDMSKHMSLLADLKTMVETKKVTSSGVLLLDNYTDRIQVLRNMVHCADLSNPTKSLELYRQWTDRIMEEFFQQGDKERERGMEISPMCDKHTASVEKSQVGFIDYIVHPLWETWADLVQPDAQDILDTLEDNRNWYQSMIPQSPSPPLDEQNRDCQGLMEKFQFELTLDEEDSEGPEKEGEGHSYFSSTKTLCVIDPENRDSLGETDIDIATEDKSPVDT
Outline: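 ACTOne HEK293 cells carry a modified cAMP-gated CNG channel and express endogenous PDE4; plated 1000 cells/well, compounds up to 22.9 uM final. Membrane-potential dye fluorescence (ex 535/em 590) was read; parental cells received 10 uM forskolin + 100 uM RO 20-1724.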

[2] = target: Ubiquitin carboxyl-terminal hydrolase 1 (Homo sapiens) (UniProt O94782); test: Inhibitors of USP1/UAF1: Pilot qHTS (AID 504865); conditions: purified USP1/UAF1, Ub-rhodamine cleavage fluorescence; series mostly up to 54.9 µM; also: potency is read from the fitted curve at half-maximal effect;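 also: rhodamine fluorescence freed from ubiquitin-rhodamine substrate followed over time; nearly all actives have a fitted effect of over 35% in size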; as to activity change, negative = inhibition: top concentration of the series differs between compounds; % is scaled to controls: 0 for no effect and ±100 for the full control effect
UniProt O94782, sequence (O94782 whole entry, looked up): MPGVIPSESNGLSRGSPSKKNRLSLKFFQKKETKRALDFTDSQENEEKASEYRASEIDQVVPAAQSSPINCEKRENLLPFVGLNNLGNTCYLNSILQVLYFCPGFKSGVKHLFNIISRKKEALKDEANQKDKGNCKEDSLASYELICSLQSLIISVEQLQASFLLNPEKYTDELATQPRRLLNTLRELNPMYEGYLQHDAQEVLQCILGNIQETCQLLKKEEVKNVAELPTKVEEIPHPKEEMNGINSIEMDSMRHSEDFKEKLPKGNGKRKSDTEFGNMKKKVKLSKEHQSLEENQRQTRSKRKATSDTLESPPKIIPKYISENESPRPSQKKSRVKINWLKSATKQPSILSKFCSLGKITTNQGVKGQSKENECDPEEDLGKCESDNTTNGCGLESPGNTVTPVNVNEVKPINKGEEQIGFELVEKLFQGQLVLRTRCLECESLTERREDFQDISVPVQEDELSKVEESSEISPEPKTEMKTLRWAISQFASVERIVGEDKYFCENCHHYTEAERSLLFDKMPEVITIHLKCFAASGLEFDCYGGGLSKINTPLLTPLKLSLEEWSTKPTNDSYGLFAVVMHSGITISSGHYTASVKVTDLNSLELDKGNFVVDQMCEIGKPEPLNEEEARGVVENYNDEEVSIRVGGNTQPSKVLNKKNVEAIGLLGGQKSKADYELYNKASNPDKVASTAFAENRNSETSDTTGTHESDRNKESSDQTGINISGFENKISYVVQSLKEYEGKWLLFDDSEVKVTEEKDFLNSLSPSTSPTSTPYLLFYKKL
Outline: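 Kinetic fluorescence assay: 1nM USP1/UAF1, 15 min compound preincubation, then 150nM Ub-Rho; 480/540 nm.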

[3] = tested on: Zika virus NS2B-NS3 protease; test: Primary screen GU AMC qHTS for Zika virus inhibitors (AID 1347154); conditions: Zika NS2B-NS3 unlinked protease, AMC fluorogenic substrate; series mostly up to 54.1 µM; also: nearly all actives have a fitted effect of over 70% in size; also: potency is read from the fitted curve at half-maximal effect;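 as to activity change, negative = inhibition: 0% = no-inhibitor control and -100% = no-enzyme control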
Outline: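 Unlinked Zika NS2B hydrophilic domain/NS3 protease domain noncovalent complex (25 nM final) in 10 mM Tris-HCl pH 8.0, 0.01% Tween 20, with AMC peptide substrate. Fluorescence (ex 340, em 450 nm) change over 15 min, room temperature; percent inhibition fitted to 4-parameter Hill equation.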

[4] = Confirmatory screen GU Rhodamine qHTS for Zika virus inhibitors qHTS (AID 1347157); conditions: purified enzyme assay, Rhodamine110 substrate fluorescence, 15 min; series mostly up to 114 µM; also: potency is read from the fitted curve at half-maximal effect; nearly all actives have a fitted effect of over 70% in size
Outline: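 Enzyme 25 nM in Tris-HCl pH 8.0 + 0.01% Tween 20; compounds up to 114 microM, 15 min RT dark; + Rhod110 substrate 1.5 microM; read t0 and 15 min; delta fluorescence → % inhibition → 4-parameter Hill fit.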

[5] = ZIKV-mCherry secondary qHTS for Zika virus inhibitors (AID 1347158); conditions: Vero cells, ZIKV-mCherry infection imaging, 48-72 h; activity change, negative = inhibition: at 49.2 µM (top of the series); also: potency is read from the fitted curve at half-maximal effect
Outline: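 After overnight seeding at 37 °C, Vero cells receive compound and then ZIKV-mCherry (MOI 1). Following 48-72 h infection, cells are fixed, counterstained with Hoechst, and imaged; percent infected cells is derived from an mCherry intensity cut-off of 450 RFU.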

[6] = Confirmatory screen NINDS Rhodamine qHTS for Zika virus inhibitors (AID 1347161); conditions: purified enzyme assay, Rhodamine110 substrate fluorescence, 15 min; series mostly up to 114 µM; also: potency is read from the fitted curve at half-maximal effect; nearly all actives have a fitted effect of over 60% in size
Outline: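 Rhodamine110-peptide cleavage (1.5 µM substrate) by 25 nM linked NS2B-NS3 enzyme at pH 8.0 (Tris, Tween 20), after 15 min RT preincubation with compounds; 15-min fluorescence change normalized to controls and Hill-fitted.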

[7] = tested on: Zika virus NS2B-NS3 protease (linked); test: 384 well plate NINDS AMC confirmatory qHTS for Zika virus inhibitors (AID 1347163); conditions: Recombinant NS2B-NS3 protease, Ac-VKTGKR-AMC fluorescence; series mostly up to 1 mM; also: nearly all actives have a fitted effect of over 50% in size; also: potency is read from the fitted curve at half-maximal effect;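 as to activity change, negative = inhibition: linked protease at 5 30 or 60 nM final depending on run; fluorescence of AMC released from Ac-VKTGKR-AMC peptide cleaved by the protease; top concentration of the series differs between compounds; 0% = no-inhibitor control and -100% = no-enzyme control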
Outline: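 Linked protease 5/30/60 nM final; cpds up to 1 mM final, ~15 min preinc. Substrate Ac-VKTGKR-AMC 30 microM final. RT, dark, 25 min; FI ex 355/em 460; normalized to no-enzyme/no-inhibitor ctrls.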

[8] = tested on: Zika virus NS2B-NS3 protease (linked construct); test: 384 well plate NINDS Rhodamine confirmatory qHTS for Zika virus inhibitors (AID 1347164); conditions: rhodamine-110 peptide substrate fluorescence; series mostly up to 1 mM; also: nearly all actives have a fitted effect of over 65% in size; also: potency is read from the fitted curve at half-maximal effect;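 as to activity change, negative = inhibition: top concentration of the series differs between compounds; plate controls were no-inhibitor control for no effect and no-enzyme control for full effect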
Outline: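 Compounds are incubated about 15 minutes with linked protease (5, 30 or 60 nM final). Rhodamine 110-tagged Ac-LKRR substrate (10 microM final) is added and fluorescence measured after 25 minutes.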

[9] = Tertiary RLuc qRT-PCR qHTS assay for Zika virus inhibitors (AID 1347169); conditions: infected Vero cells, reporter luminescence, 48-72 h; series mostly up to 45.9 µM; also: potency is read from the fitted curve at half-maximal effect; nearly all actives have a fitted effect of over 55% in size
Outline: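 Orthogonal cell-based infection assay using recombinant ZIKV-RLuc (Cambodian) in Vero cells; compound added prior to virus at MOI 1-2. Incubation lasts 48-72 hrs at 37 degrees C before live-cell Renilla substrate is added and luminescence measured.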

[10] = target: Mitogen-activated protein kinase 10 (Mus musculus) (UniProt Q61831); test: JNK3 AlphaScreen Assay (AID 530; active = well fitted curve in either direction with a large enough effect, not every such curve was filed as active; inconclusive = small, poorly fitted or top-dose-only effect, or another doubt;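 also: kinase came from lysate of stimulated human HepG2 cells; signal reports phosphorylation of biotinylated GST-cJun 1-79 at Ser73 with 10 µM ATP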; also: potency is read from the fitted curve at half-maximal effect); conditions: JNK3 lysate, c-Jun phosphorylation; activity change, negative = inhibition: at 57.1 µM (top of the series)
Outline: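 JNK3 came from HepG2 lysates pre-activated with IL-1beta and TNF-alpha and phosphorylated biotinylated GST-cJun (1-79) at 10 uM ATP, pH 7.6, room temperature. Compounds were titrated. AlphaScreen signal used anti-phospho-cJun (Ser73) antibody.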

[11] = qHTS Assay for Lipid Storage Modulators (AID 1519; calls by dose curve; also: % is scaled to controls: 0 for no effect and ±100 for the full control effect); conditions: Drosophila S3 cells, BODIPY lipid droplet/cell ratio, laser cytometry, cells loaded with oleic acid; activity change, negative = inhibition: at 57.5 µM (top of the series) unless noted
Outline: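 Cells seeded at 5,000 per well were treated with compounds over a concentration series and loaded with oleic acid (400 uM, as added). Lipid droplet fluorescence (488 nm excitation, 500-530 nm channel) was read by laser-scanning cytometry and normalized to 20 uM Triacsin C.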

[12] = target: Cytochrome P450 2D6 (Homo sapiens) (UniProt P10635); test: qHTS Assay for Inhibitors and Substrates of Cytochrome P450 2D6 (AID 891); conditions: recombinant CYP2D6, luciferin-ME EGE luminescence; series mostly up to 57.1 µM;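 also: luciferin methyl ether substrate demethylated by CYP2D6 with NADPH regeneration; potency is read from the fitted curve at half-maximal effect; nearly all actives have a fitted effect of over 60% in size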
UniProt P10635, sequence (P10635 whole entry, looked up): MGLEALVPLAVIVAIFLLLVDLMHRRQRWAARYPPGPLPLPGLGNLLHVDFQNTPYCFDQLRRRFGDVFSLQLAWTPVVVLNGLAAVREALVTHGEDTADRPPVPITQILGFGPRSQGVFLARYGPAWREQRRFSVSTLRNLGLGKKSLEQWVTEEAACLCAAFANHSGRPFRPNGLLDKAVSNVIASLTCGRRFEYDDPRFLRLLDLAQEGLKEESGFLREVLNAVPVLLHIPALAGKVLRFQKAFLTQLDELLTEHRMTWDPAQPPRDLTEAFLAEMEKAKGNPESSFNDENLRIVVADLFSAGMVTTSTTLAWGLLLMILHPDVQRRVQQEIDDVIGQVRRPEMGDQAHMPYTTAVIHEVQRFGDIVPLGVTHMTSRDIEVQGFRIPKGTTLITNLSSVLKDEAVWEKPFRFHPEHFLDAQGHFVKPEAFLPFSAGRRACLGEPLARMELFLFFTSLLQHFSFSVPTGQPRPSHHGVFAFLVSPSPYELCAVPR
Outline: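 Human CYP2D6 (5 nM) with 30 uM Luciferin-ME EGE (at Km) in 100 mM KPO4, compound preincubated 10 min, then NADPH regeneration system for 60 min at room temperature. Luciferin read by luminescence; normalized to 1.43 uM quinidine.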

[13] = target: Cytochrome P450 1A2 (Homo sapiens) (UniProt P05177); test: p450-cyp1a2 (AID 410; calls by dose curve; also: potency is read from the fitted curve at half-maximal effect); conditions: recombinant CYP1A2, luciferin-ME demethylation, luminescence; series mostly up to 57 µM
UniProt P05177, sequence (P05177 whole entry, looked up): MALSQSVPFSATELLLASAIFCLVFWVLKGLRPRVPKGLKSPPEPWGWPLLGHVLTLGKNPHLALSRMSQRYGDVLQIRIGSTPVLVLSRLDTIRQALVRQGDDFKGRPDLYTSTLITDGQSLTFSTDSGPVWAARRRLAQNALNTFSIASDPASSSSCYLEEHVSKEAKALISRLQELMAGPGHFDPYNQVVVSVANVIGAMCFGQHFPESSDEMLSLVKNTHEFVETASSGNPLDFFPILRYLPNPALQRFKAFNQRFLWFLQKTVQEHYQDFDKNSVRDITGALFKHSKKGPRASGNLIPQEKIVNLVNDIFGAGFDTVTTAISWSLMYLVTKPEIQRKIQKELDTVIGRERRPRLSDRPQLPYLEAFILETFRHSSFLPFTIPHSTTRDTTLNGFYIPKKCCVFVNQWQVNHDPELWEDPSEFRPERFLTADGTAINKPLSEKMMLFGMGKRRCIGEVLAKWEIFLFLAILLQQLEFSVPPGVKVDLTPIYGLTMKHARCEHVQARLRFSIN
Outline: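 Inhibition was calculated relative to 57 uM furafylline (full inhibition). The reaction used human CYP1A2 at 20nM with Luciferin-ME at its Km, 100uM, driven by an NADPH-regenerating system for 60 min at room temperature.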

[14] = NFAT Signaling Pathway (AID 444; active = well fitted curve in either direction with a large enough effect, not every such curve was filed as active; inconclusive = small, poorly fitted or top-dose-only effect, or another doubt;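 also: carbachol stimulus at about its EC50 of 1 µM final; % is scaled to controls: 0 for no effect and ±100 for the full control effect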); conditions: Jurkat NFAT-bla M1, carbachol, beta-lactamase ratio, 5 h; at 7.69 µM (top of the series) unless noted
Outline: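 Jurkat cells carrying an NFAT-driven β-lactamase reporter and co-transfected muscarinic M1 receptor were treated with compound plus carbachol (1 uM final, an EC50 level) for 5 h at 37 °C. CCF4 loading followed for 1 h at RT; 460/530 nm ratio gave %activity.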

[15] = target: Glucocorticoid receptor (Homo sapiens) (UniProt P04150); test: GR-EFC Redistribution (AID 451; calls by dose curve; also: potency is read from the fitted curve at half-maximal effect); conditions: CHO-K1 GR-EFC translocation, beta-gal luminescence, 2 h
UniProt P04150, sequence (P04150 whole entry, looked up, the tested form may be a part): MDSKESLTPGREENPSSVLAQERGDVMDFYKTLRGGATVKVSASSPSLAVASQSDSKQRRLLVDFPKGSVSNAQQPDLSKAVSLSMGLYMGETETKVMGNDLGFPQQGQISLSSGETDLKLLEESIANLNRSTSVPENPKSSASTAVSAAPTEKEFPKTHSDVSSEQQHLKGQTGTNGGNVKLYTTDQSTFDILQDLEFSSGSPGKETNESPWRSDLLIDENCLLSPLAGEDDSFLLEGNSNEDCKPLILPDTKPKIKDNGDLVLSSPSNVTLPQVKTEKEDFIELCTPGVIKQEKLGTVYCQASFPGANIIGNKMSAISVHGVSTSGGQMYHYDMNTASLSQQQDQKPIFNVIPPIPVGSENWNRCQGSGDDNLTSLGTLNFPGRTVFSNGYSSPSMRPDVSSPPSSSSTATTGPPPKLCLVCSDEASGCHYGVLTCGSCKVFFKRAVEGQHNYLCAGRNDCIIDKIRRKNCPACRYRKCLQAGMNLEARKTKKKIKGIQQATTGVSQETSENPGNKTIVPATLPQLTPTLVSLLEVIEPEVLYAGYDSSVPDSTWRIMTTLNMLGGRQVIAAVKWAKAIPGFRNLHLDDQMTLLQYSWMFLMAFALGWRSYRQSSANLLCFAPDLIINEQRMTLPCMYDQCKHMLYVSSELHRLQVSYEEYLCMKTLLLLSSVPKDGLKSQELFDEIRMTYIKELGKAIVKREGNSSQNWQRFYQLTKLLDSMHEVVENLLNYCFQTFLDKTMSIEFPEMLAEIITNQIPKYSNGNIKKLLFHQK
Outline: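 CHO-K1 cells stably expressing nuclear-localized β-gal enzyme acceptor and GR fused C-terminally to the enzyme donor fragment; ligand-driven nuclear translocation restores β-gal by complementation. Compounds titrated up to 46 uM final, 2 h at 37 °C; luminescence read.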

[16] = qHTS Assay for Identification of Small Molecule Antagonists for NFkB Signaling Pathway (AID 895; active = well fitted inhibition curve with a large enough effect in the signal ratio, with a control signal flat, not every such curve was filed as active; inconclusive = small, poorly fitted or top-dose-only effect, or effect the other way, or a change in a side signal; the % refers to the signal ratio; also: % is scaled to controls: 0 for no effect and ±100 for the full control effect); conditions: NFkB beta-lactamase reporter cells, FRET ratio 460/530, stimulated with 10 pM TNF alpha; activity change, negative = inhibition: at 38.3 µM (top of the series)
Outline: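 NFkB-bla ME-180 cervical carcinoma cells with beta-lactamase reporter under NFkB response element; compounds added, then TNF alpha at 10 pM final (EC50), 5 h at 37 C. LiveBLAzer substrate 2 h, room temperature; emission 460/530 nm at 405 nm excitation.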

[17] = qHTS Assay for Identification of Small Molecule Antagonists for Thrombopoietin (TPO) Signaling Pathway (AID 918); conditions: TPO-dependent cell signaling reporter, antagonist mode; activity change, negative = inhibition: at 38.5 µM (top of the series); also: nearly all actives have a fitted effect of over 60% in size
Outline: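 First, Ba/F3 reporter cells expressing human TPO receptor were held overnight without IL-3. Next, compound and 26 pM TPO were added. After 24 hrs incubation at 37 C, luciferase luminescence under the Glycoprotein IIb promoter was recorded.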

[18] = target: Muscarinic acetylcholine receptor M1 (Rattus norvegicus) (UniProt P08482); test: qHTS Assay for Antagonists of Acetylcholine Muscarinic M1 Receptor: Kinetic Measurement of Intracellular Calcium Response (AID 943); conditions: M1-expressing cells, kinetic intracellular calcium fluorescence; series mostly up to 35.3 µM;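 also: Fluo-4 calcium signal as peak divided by basal fluorescence over 4 min; nearly all actives have a fitted effect of over 75% in size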
UniProt P08482, sequence (P08482 whole entry, looked up): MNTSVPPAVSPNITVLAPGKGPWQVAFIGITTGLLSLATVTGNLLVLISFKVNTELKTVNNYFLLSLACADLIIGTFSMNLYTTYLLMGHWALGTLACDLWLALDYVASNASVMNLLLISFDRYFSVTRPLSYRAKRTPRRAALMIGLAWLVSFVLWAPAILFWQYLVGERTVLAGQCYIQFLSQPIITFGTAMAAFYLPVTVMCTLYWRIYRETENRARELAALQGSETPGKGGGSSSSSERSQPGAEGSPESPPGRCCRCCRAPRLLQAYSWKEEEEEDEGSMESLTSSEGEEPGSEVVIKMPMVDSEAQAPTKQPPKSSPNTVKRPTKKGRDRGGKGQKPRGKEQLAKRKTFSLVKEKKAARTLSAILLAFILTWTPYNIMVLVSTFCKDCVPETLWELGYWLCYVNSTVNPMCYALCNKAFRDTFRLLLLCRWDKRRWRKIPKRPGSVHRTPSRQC
Outline: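 Intracellular calcium flux, recorded with Fluo-4 in a kinetic plate reader, served as signal; the response to carbachol at EC80 (100 nM final) was taken as maximal over minimal fluorescence after a 10 min compound pre-incubation in rat M1-CHO cells.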

[19] = target: Muscarinic acetylcholine receptor M1 (Rattus norvegicus) (UniProt P08482); test: qHTS Assay for Antagonists of Acetylcholine Muscarinic M1 Receptor: Measurement of IP-One Response (AID 944); conditions: CHO-M1 cells, IP-One HTRF, antagonist mode; series mostly up to 46.1 µM; also: potency is read from the fitted curve at half-maximal effect; nearly all actives have a fitted effect of over 75% in size
[20] = target: RecQ-like DNA helicase BLM (Homo sapiens) (UniProt P54132); test: qHTS Validation Assay for Inhibitors of Bloom's syndrome helicase (BLM) (AID 2364); conditions: BLM helicase DNA unwinding, fluorescence, in vitro; series mostly up to 57.1 µM; also: potency is read from the fitted curve at half-maximal effect
Outline: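 BLM 50 nM in 25 mM Tris-HCl pH 8.0, 5 mM NaCl, 2 mM MgCl2, 1 mM DTT, 0.01% Tween-20, 2.5 ug/ml poly(dI-dC); 15 min cpd preinc, RT. Start: 200 nM forked DNA + 2 mM ATP (final). TAMRA read, 2 reads 2 h apart.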
Tags tell the direction and shape of the fitted curve.

With `CN(CCc1ccc(Cl)c(Cl)c1)CCN1CCCC1` the Potency [1] was inconclusive: 12 µM [activator, partial curve], the Potency [2] was inconclusive: 63.1 µM [inhibitor, partial curve, poor fit] and the Potency [3] was “inactive”.
In the case of `Cc1c(NS(=O)(=O)c2ccccc2)cc(C(C)C)c(O)c1S(=O)(=O)c1ccc(Cl)cc1`, the Potency [4] is reported as inconclusive: 50.1 µM [inhibitor, single point], the Potency [5] is reported as inconclusive: 5.01 µM [inhibitor, full curve, poor fit] and the Potency [6] is reported as inconclusive: 89.1 µM [inhibitor, single point]. For the same compound, the Potency [7] was inconclusive: 141 µM [inhibitor, single point], the Potency [8] was inconclusive: 44.7 µM [inhibitor, full curve, poor fit] and the Potency [9] was inconclusive: 22.4 µM [inhibitor, single point].
In the case of `CCOC(=O)c1ccc(NC(=O)CSc2nc(-c3ccc(F)cc3)cc(C(F)(F)F)c2C#N)cc1`, the Potency [4] is reported as inconclusive: 39.8 µM [inhibitor, partial curve], the Potency [5] is reported as inconclusive: 15.8 µM [inhibitor, partial curve] and the Potency [6] is reported as inconclusive: 50.1 µM [inhibitor, partial curve]. For the same compound, the Potency [7] was “inactive”, the Potency [8] was “inactive” and the Potency [9] was inconclusive: 7.94 µM [inhibitor, partial curve, poor fit].
With `COc1ccc(NS(=O)(=O)c2ccc(NS(=O)(=O)c3ccc4c(c3)OCCO4)cc2)cc1` the Potency [4] was inconclusive: 56.2 µM [inhibitor, partial curve], the Potency [5] was inconclusive: 35.5 µM [inhibitor, single point] and the Potency [9] was inconclusive: 0.0039 µM [inhibitor, full curve, poor fit].
In the case of `Cc1cccc(CCN2CCC(C(=O)c3ccc(NS(C)(=O)=O)cc3)CC2)n1`, the Potency [2] is reported as “inactive” and the Potency [3] is reported as inconclusive: 23.8 µM [inhibitor, partial curve].
In the case of `CS(=O)(=O)c1ccc(Cn2c3c(c4cc(F)cc(F)c42)CCC[C@H]3CC(=O)O)cc1`, the Potency [1] is reported as inconclusive: 7.55 µM [activator, partial curve, poor fit], the Potency [2] is reported as inconclusive: 63.1 µM [inhibitor, partial curve, poor fit] and the Potency [3] is reported as inconclusive: 23.8 µM [inhibitor, partial curve].
In the case of `NC1=NCCCC1`, the Potency [10] is reported as “inactive”, the activity change, negative = inhibition [11] is reported as inconclusive: 1.33% and the Potency [3] is reported as “inactive”.
For `Cc1cc(C)c(S(=O)(=O)Nc2ccccc2C(F)(F)F)c(C)c1`, the Potency [10] was inconclusive: 39.8 µM [activator, single point], the Potency [1] was inconclusive: 15.1 µM [rising, single point] and the Potency [12] was active: 6.31 µM. For the same compound, the Potency [2] was inconclusive: 31.6 µM [inhibitor, partial curve] and the Potency [3] was inconclusive: 21.2 µM [inhibitor, single point].
For `O=C(O)c1c2ccccc2cc2ccccc12`, the Potency [1] was inconclusive: 19 µM [activator, partial curve, poor fit], the Potency [2] was inconclusive: 44.7 µM [inhibitor, partial curve] and the Potency [3] was active: 26.7 µM.
In the case of `COc1ccc2[nH]c(-c3ccccc3)c(CCNC(C)=O)c2c1`, the Potency [2] is reported as inconclusive: 44.7 µM [inhibitor, partial curve, poor fit] and the Potency [3] is reported as inconclusive: 8.44 µM [inhibitor, single point].
For `CCCCCC(=O)O[C@H](CC(=O)O)C[N+](C)(C)C`, the Potency [13] was inconclusive: 31.6 µM [decreasing], the Potency [1] was inconclusive: 19 µM [inhibitor, single point] and the Potency [3] was “inactive”.
In the case of `CCCn1c(=O)c2[nH]c(-c3ccc(OCC(=O)Nc4ccc(C#N)cc4)cc3)nc2n(CCC)c1=O`, the activity change, negative = inhibition [14] is reported as inactive: -7.64% [at 38 µM], the Potency [15] is reported as inactive: > 46 µM and the Potency [1] is reported as “inactive”. The activity change, negative = inhibition [16] was inconclusive: 37.9%, the activity change, negative = inhibition [17] was inconclusive: -14.3% [phenotype inactive] and the Potency [18] was “inactive”. The Potency [19] was inconclusive: 0.0282 µM [inhibitor, full curve, poor fit], the Potency [11] was “inactive” and the Potency [20] was inconclusive: 7.08 µM [inhibitor, full curve]. For the same compound, the Potency [3] was “inactive”.
In the case of `CCOc1ccc(C(=O)Nc2cccc(C(=O)OCc3cc(=O)n4nc(C5CC5)sc4n3)c2)cc1`, the Potency [4] is reported as inconclusive: 31.6 µM [inhibitor, partial curve], the Potency [5] is reported as inconclusive: 2.24 µM [inhibitor, full curve] and the Potency [6] is reported as inconclusive: 31.6 µM [inhibitor, partial curve]. For the same compound, the Potency [7] was inconclusive: 158 µM [inhibitor, single point], the Potency [8] was inconclusive: 25.1 µM [inhibitor, partial curve, poor fit] and the Potency [9] was inconclusive: 1.23 µM [inhibitor, partial curve, poor fit].
